Consider 45 compounds from paper PMC4336329 (PLoS ONE, 2015).

Structures are written as SMILES. In all, about 310,000 compounds went through this assay and about 14,000 (4.5%) showed an effect of 50% or more. Effects have a minus sign here. The list shows a part of the results.
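Note: peak tail current of the secondary pulse compared with the same well before compound.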

Chain of human ether-à-go-go-related gene (hERG) potassium channel (Q12809 whole entry, looked up): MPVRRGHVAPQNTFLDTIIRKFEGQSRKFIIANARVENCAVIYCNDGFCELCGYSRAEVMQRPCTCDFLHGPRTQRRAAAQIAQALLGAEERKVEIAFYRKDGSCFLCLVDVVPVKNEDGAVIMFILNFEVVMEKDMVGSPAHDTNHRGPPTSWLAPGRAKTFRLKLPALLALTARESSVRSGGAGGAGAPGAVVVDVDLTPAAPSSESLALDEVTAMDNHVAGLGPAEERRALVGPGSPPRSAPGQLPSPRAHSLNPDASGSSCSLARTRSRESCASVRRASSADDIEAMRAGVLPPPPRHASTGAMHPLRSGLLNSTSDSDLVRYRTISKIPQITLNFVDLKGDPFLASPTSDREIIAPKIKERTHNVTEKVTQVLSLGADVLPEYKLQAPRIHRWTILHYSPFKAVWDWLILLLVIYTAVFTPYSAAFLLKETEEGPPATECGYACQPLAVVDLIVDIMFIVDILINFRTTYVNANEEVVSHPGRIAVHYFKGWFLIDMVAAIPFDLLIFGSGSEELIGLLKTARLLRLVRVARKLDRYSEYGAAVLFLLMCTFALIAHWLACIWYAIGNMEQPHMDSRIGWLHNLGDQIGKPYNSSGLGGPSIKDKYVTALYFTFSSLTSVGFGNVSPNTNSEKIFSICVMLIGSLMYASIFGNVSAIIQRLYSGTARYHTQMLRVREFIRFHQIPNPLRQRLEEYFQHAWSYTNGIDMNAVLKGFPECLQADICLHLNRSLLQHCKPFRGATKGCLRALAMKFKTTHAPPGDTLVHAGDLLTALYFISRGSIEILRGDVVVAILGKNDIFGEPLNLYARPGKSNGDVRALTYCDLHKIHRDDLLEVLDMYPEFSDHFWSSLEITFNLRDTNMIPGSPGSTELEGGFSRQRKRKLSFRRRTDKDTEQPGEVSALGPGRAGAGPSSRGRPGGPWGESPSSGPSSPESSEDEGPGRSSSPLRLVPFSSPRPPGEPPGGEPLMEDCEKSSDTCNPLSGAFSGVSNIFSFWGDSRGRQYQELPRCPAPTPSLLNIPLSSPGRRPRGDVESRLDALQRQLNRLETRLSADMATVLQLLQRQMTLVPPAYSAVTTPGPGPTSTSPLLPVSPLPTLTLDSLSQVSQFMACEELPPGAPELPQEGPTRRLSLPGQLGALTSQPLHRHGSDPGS

This assay has as its target human ether-à-go-go-related gene (hERG) potassium channel (human, UniProt Q12809). The assay can be described thus: primary screen, population patch clamp on CHO cells stably expressing hERG.
As to `Cc1cccc(N(C(=O)c2csnn2)C(C(=O)NCc2ccccc2)c2cccs2)c1` (stereo not drawn), the “hERG current change (%, negative = inhibition) at 10uM” value is -9.49%.

With `O=C(O)c1ccc(S(=O)(=O)NC2CCCCCC2)cc1`, the “hERG current change (%, negative = inhibition) at 10uM” value is listed as 20.7%. For the compound `Cn1cc(C(=O)NCC2COc3ccccc3O2)c(=O)c2cc(S(=O)(=O)N3CCCCC3)ccc21` (stereo not drawn), the “hERG current change (%, negative = inhibition) at 10uM” value turned out to be 4.61%.

For `COc1cc(NC(=O)COc2ccccc2)ccc1NC(=O)c1ccco1`, the “hERG current change (%, negative = inhibition) at 10uM” value is listed as -9.92%.

In the case of `COc1ccc(Cl)cc1-c1nc(-c2ccc(NC(=O)c3ccncc3)cc2)no1`, the “hERG current change (%, negative = inhibition) at 10uM” value is 2.51%. Turning to `c1cc2c3c(cccc3c1)NC(c1ccc3c(c1)OCO3)N2`, the “hERG current change (%, negative = inhibition) at 10uM” value turned out to be 11.7%.

As to `Cc1ccsc1CN(C)C(=O)C1CCC(=O)N(CCc2cccc(F)c2)C1` (stereo not drawn), the “hERG current change (%, negative = inhibition) at 10uM” value is -35.9%. The value for `CC1(C)CC(=O)C(CC(=O)N2CCC(Cc3ccccc3)CC2)C(=O)C1` was 34.8%. For the compound `COCCCn1c2nc3ccccc3nc2c2c(=O)n(Cc3ccc(Cl)cc3)cnc21`, the “hERG current change (%, negative = inhibition) at 10uM” value was -12.7%. Turning to `CC(=O)c1cccc(NC(=O)NC2CCCc3ccccc32)c1` (stereo not drawn), the “hERG current change (%, negative = inhibition) at 10uM” value is recorded as -11%. On to `COCCCNC(=S)N1CCN(c2nc(-c3ccccc3)cs2)CC1`, for which the “hERG current change (%, negative = inhibition) at 10uM” value is -5.55%. Take `Cc1ccc(NCc2nnc(SCC(=O)O)n2-c2ccc(C)cc2)cc1`: the “hERG current change (%, negative = inhibition) at 10uM” value was determined as 16.8%. The value for `N#CCCn1c(SCC(=O)N2CCN(S(=O)(=O)c3ccccc3)CC2)nc2ccccc21` was -32.6%. With `COc1ccc(-n2c(Cc3cccn3C)nnc2SCC(N)=O)cc1`, the “hERG current change (%, negative = inhibition) at 10uM” value is given as -0.432%.

Regarding `CC(C)(C)C1CCCCC1NC(=O)c1ccncc1` (stereo not drawn), the “hERG current change (%, negative = inhibition) at 10uM” value came to 12.1%. Regarding `CCc1ccc(CN2CCN(S(=O)(=O)Cc3ccccc3)CC2)cc1.O=C(O)C(=O)O`, the “hERG current change (%, negative = inhibition) at 10uM” value worked out at 5.61%.

In the case of `Cc1ccc(NC(=O)c2ccc(Cl)c(S(=O)(=O)N3CCCC3)c2)nc1`, the “hERG current change (%, negative = inhibition) at 10uM” value is -8.97%.

With `O=C(N1CCN(c2ccccc2)CC1)C(F)(F)C(F)(F)F`, the “hERG current change (%, negative = inhibition) at 10uM” value is 12.2%. On to `CCOC(=O)N1CCN(C(=O)CSc2cc(C)nc3c(-c4ccccc4OC)c(C)nn23)CC1`, for which the “hERG current change (%, negative = inhibition) at 10uM” value was -17.6%. With `CCC(=O)Nc1ccccc1`, the “hERG current change (%, negative = inhibition) at 10uM” value was -1.07%.

With `CCN1C(=O)C(c2ccc(O)cc2)(c2ccc(O)cc2)c2ccccc21`, the “hERG current change (%, negative = inhibition) at 10uM” value is -18%. For the compound `Cc1cccc(C(=O)N2CCCC(N3CCN(c4cccc(Cl)c4)CC3)C2)n1` (stereo not drawn), the “hERG current change (%, negative = inhibition) at 10uM” value is -17.5%. Consider `Cc1c(Br)c([N+](=O)[O-])nn1C(C)C(=O)N1CCCc2ccccc21` (stereo not drawn), for which the “hERG current change (%, negative = inhibition) at 10uM” value is on record as -2.66%. Take `CC(CCc1ccccc1)NC(=O)COC(=O)c1ccccc1O` (stereo not drawn): the “hERG current change (%, negative = inhibition) at 10uM” value was 2.31%. In the case of `COc1ccc(/C=C/C(=O)c2cc3cccc(OC)c3oc2=O)cc1`, the “hERG current change (%, negative = inhibition) at 10uM” value is 15.4%.

As for `COc1cccc(-c2nc(OC(C)C)c3ccccc3n2)c1`, the “hERG current change (%, negative = inhibition) at 10uM” value was determined as 1.35%. With `CC(=O)Nc1nc(C)c(-c2csc([NH2+]c3ccccn3)n2)s1.[Br-]` the figure was -23.2%; with `COCCNC(=O)COC(=O)c1[nH]c(C)c(C(C)=O)c1C`, 23.8%.

`CCNC(=S)Nc1cc(Cl)ccc1Oc1ccccc1`: the “hERG current change (%, negative = inhibition) at 10uM” value is -8.45%. For the compound `O=c1c(Cl)c2oc3ccccc3nc-2c2ccccc12`, the “hERG current change (%, negative = inhibition) at 10uM” value is 28.9%. `COc1ccccc1NC(=S)NC(=O)/C=C/c1ccco1`: the “hERG current change (%, negative = inhibition) at 10uM” value worked out at 20.3%.

As to `CC(=O)c1ccc(NC(=O)C2CCCC2)cc1`, the “hERG current change (%, negative = inhibition) at 10uM” value turned out to be 10.7%. Turning to `Cl.O=C(O)c1ccc(CNCc2ccccc2Cl)cc1`, the “hERG current change (%, negative = inhibition) at 10uM” value is -45.9%.

As to `Cc1cc(C)c(-c2cc(NC(=O)CSc3n[nH]c(N)n3)n(-c3ccccc3)n2)cc1C`, the “hERG current change (%, negative = inhibition) at 10uM” value is 3.57%. With `COc1ccccc1/C=N/NC(=O)C(=O)Nc1ccccc1OC(F)(F)C(F)F`, the “hERG current change (%, negative = inhibition) at 10uM” value is -3.16%. For `COc1cc2c(cc1NC(=O)COC(=O)c1ccccc1)oc1ccccc12`, the “hERG current change (%, negative = inhibition) at 10uM” value was found to be 10.2%. With `Cn1cccc1C1Nc2ccccc2NC2=C1C(=O)CC(C)(C)C2` (stereo not drawn) the figure was 12.1%; with `Cc1ccc(C(=O)OC(C)C(=O)Nc2ccc3c(c2)OCO3)c(O)c1` (stereo not drawn), -12.1%. Regarding `C=CCn1c(SCC(=O)Nc2ccc(S(N)(=O)=O)cc2)nnc1-c1cnccn1`, the “hERG current change (%, negative = inhibition) at 10uM” value came to 13%. For `CC1(C)SC2C(NC(=O)COc3ccccc3)C(=O)N2C1C(=O)O` (stereo not drawn), the “hERG current change (%, negative = inhibition) at 10uM” value is recorded as 13.5%. Consider `COCCOC(=O)C(CC(=O)O)NCc1ccco1` (stereo not drawn), for which the “hERG current change (%, negative = inhibition) at 10uM” value is listed as -2.8%. As to `COc1ccc(NC(=O)C2CCCNC2=O)cc1` (stereo not drawn), the “hERG current change (%, negative = inhibition) at 10uM” value is listed as 11.6%. Regarding `Cc1cc(Nc2ccc(F)cc2F)n2nc(C)nc2n1`, the “hERG current change (%, negative = inhibition) at 10uM” value turned out to be 4.46%. As to `CN1CCN(NC(=O)c2ccc(Cl)cc2Cl)CC1`, the “hERG current change (%, negative = inhibition) at 10uM” value came to 0.116%. The value for `Cc1cc(OCC(=O)NCc2ccncc2)c2c(C)cc(=O)oc2c1` was -30.1%.
